Experimental data from PubChem BioAssay AID1468 (National Center for Advancing Translational Sciences (NCATS), 2008).
The campaign covered roughly 280,000 compounds. About 1,100 (0.39%) were called active. Inconclusive means that the source gave no clear call. Such entries were picked first, then a sample of the others. Calls come from the whole dose curve; as a rule, active = well fitted inhibition curve with a large enough effect; inconclusive = small, poorly fitted or top-dose-only effect, or effect the other way; inactive = flat fitted curve, though single readings scatter. No potency is given beside an inconclusive call; the fits are too rough.

Molecular target: Microtubule-associated protein tau (Homo sapiens) (UniProt P10636)
Sequence of UniProt P10636 (P10636 whole entry, looked up): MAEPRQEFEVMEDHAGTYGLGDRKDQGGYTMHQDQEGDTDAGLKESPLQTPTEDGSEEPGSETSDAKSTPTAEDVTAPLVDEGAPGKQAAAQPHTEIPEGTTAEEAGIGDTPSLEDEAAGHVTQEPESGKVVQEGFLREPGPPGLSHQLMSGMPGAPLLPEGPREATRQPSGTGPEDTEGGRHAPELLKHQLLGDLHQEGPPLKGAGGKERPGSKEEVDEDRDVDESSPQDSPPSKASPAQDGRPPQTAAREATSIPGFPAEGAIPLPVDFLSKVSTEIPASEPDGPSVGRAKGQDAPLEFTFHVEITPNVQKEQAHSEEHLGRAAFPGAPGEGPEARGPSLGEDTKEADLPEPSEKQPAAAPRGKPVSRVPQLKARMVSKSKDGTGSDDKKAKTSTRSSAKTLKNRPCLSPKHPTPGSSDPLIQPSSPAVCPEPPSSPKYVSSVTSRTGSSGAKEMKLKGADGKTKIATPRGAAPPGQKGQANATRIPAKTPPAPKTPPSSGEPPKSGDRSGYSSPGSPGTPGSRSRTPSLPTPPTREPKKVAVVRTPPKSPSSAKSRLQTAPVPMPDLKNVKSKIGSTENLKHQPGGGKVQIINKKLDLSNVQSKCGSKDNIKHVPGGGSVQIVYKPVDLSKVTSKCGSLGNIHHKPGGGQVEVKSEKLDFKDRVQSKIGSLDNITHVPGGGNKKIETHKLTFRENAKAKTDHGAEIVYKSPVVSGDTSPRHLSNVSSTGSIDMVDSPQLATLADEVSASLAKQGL
Experiment: qHTS for Inhibitors of Tau Fibril Formation, Fluorescence Polarization; note: nearly all actives have a fitted effect of over 55% in size
Conditions: K18 P301L tau heparin fibrillization, Alexa594 FP, 6 h; series mostly up to 57.7 µM
Procedure, shortened: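 Steps: dispense K18 P301L tau (15 uM plus 0.24 uM Alexa 594 tracer, final) in pH 7 sodium acetate; add compound; add heparin (20 uM final); incubate 6 hr, 37 C; add ThT (30 uM final); after 1 hr ambient, read FP.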
Potency is the fitted concentration of half-maximal effect; tags give direction and shape of the fitted curve.

| Compound | Potency |
| --- | --- |
| COC(=O)C1=C(N)c2c(F)cccc2C1(C#N)c1ccc(F)cc1 (stereo not drawn) | inactive |
| CCOc1ccc(C(=O)NC(=S)Nc2ccc(NC(=O)c3ccco3)c(C)c2)cc1[N+](=O)[O-] | inconclusive [inhibitor, partial curve, poor fit] |
| Cc1cccc(NC(=O)CSc2nc3ccc(NC(=O)CCc4ccccc4)cc3s2)c1 | inconclusive [inhibitor, partial curve] |
| COc1cc(-c2nc3ccccc3s2)ccc1O | inactive |
| COc1ccc(-c2nc3ccccc3s2)cc1NC(=O)c1cccc(F)c1 | inconclusive [inhibitor, partial curve, poor fit] |
| O=C(Nc1cc(S(=O)(=O)N2CCOCC2)ccc1N1CCCC1)c1cc(=O)[nH]c2ccccc12 | inactive |
| COc1ccc(C(C)=O)c(O)c1 | inactive |
| O=C(NCCOCCn1c(=O)oc2ccccc21)Nc1ccc(F)cc1F | inactive |
| CCOC(=O)Cc1csc(NC(=O)Nc2ccc(OC(F)(F)F)cc2)n1 | inconclusive [inhibitor, single point] |
| COc1ccccc1N1CCN(Cc2nc(-c3cc(OC)c(OC)c(OC)c3)no2)CC1 | inactive |
| Cc1c(Cl)ccc2c1NC(=O)C21NC(CCC(N)=O)[C@H]2C(=O)N(c3ccc(Cl)cc3)C(=O)[C@H]21 (stereo partly drawn) | inactive |
| COC(=O)c1ccccc1S(=O)(=O)Nc1ccc2cn[nH]c2c1 | inconclusive [inhibitor, partial curve, poor fit] |
| COc1cccc(N2C(=O)[C@H]3C(C(=O)c4cnccn4)=NN[C@H]3C2=O)c1 | inactive |
| CCCCOC(=O)CSc1nc(N)c(C#N)c(-c2ccc(OCC)cc2)c1C#N | inconclusive [inhibitor, partial curve] |
| Cc1ccc(NC(=O)CSc2nc3n[nH]c(C)c3c(=N)n2-c2ccccc2C)cc1C | inconclusive [inhibitor, full curve, poor fit] |
| CN(C)c1ccc(-n2cccc2/C=C/[N+](=O)[O-])cc1 | inactive |
| O=C(Nc1ccc(N2C(=O)C3C4C=CC(C4)C3C2=O)cc1)Nc1nnc(C(F)(F)F)s1 (stereo not drawn) | inconclusive [inhibitor, partial curve] |
| O/C(=C\c1nc2ccccc2nc1/C=C(\O)c1ccccc1)c1ccccc1 | inactive |
| N#Cc1cc(C(=O)c2ccccc2O)cn(-c2nccs2)c1=O | inactive |
| Nc1ncc(N=Nc2cc(C(=O)O)ccc2Cl)s1 | inconclusive [inhibitor, partial curve] |
| O=C(CSc1nccn1-c1ncc(C(F)(F)F)cc1Cl)c1ccc(Br)cc1 | inconclusive [inhibitor, partial curve] |
| Cc1[nH]c2ccccc2c1Cc1nnc(SCC(=O)NCc2ccco2)o1 | inconclusive [inhibitor, single point] |
| CCc1ccc(NC(=O)CN2C(C(=O)OC)=C(c3ccccc3)c3ccccc3S2(=O)=O)cc1 | inconclusive [inhibitor, single point] |

| Compound | Potency |
| --- | --- |
| O=C(Nc1ccc(Cl)cc1F)c1cc(S(=O)(=O)NC2CCCCCC2)ccc1F | inconclusive [inhibitor, single point] |
| COc1cccc(NC(=O)CSc2ncnc3c2cnn3Cc2ccccc2)c1 | inconclusive [inhibitor, partial curve] |
| Cc1ccccc1OCC(=O)N1N=C(c2cccnc2)CC1(O)C(F)(F)F (stereo not drawn) | inconclusive [activator, single point] |
| O=C(NCC1OCCc2ccccc21)c1cc(COc2ccc(F)cc2Cl)on1 (stereo not drawn) | inactive |
| COCCNC(=O)CSc1nc(-c2ccc(C)cc2)[nH]c1-c1ccc(OC)cc1 | inconclusive [activator, partial curve] |
| COc1cc(C=C2C(=O)OC(C)(C)OC2=O)ccc1OCC(=O)Nc1ccccc1 | inactive |
| Cc1cccc(NC(=O)c2oc3ccccc3c2NC(=O)Cc2coc3cc(C)cc(C)c23)c1 | inconclusive [inhibitor, partial curve] |
| COc1ccc(C(=O)COC(=O)CNS(=O)(=O)c2ccc(C)cc2)cc1 | inactive |
| Cc1cc(NC(=O)CSc2nc(C(C)C)nc3c2c(=O)n(C)c(=O)n3C)no1 | inconclusive [inhibitor, full curve, poor fit] |
| Cc1ccc2c(CC(=O)Nc3ccc(S(=O)(=O)N4CCCC(C)C4)cc3)coc2c1 (stereo not drawn) | inconclusive [inhibitor, partial curve] |
| S=C(NCc1ccccc1)NNc1nc2ccccc2[nH]1 | inconclusive [inhibitor, partial curve] |
| O=c1cc(-c2ccc(Cl)cc2)[nH][nH]1 | inconclusive [inhibitor, full curve, poor fit] |
| COC(=O)c1cc(NC(=O)Cn2ncc3c([nH]c4ccccc43)c2=O)cc(C(=O)OC)c1 | inconclusive [inhibitor, partial curve] |
| O=C(O)c1ccccc1-c1nc2cc(Cl)ccc2c(=O)n1O | inactive |
| CC(/C=C1\SC(=O)N(CC(=O)Nc2cccc(O)c2)C1=O)=C\c1ccccc1 | active: 15.8 µM |
| CCc1ccc2oc(-c3cccc(NC(=O)c4cccnc4)c3)nc2c1 | inconclusive [inhibitor, partial curve] |
| CN(C)c1ccc(-c2nc3cnccn3c2Nc2ccc3c(c2)OCCO3)cc1 | inconclusive [activator, single point] |
| COc1cc(NC(=S)NC(=O)c2cc(C)cc(C)c2)ccc1NC(=O)c1cccs1 | inactive |
| Cc1ccc(C=NCc2ccncc2)c(O)c1 | inconclusive [inhibitor, single point] |
| Cc1ccc(CNC(=O)c2ccc(N3Cc4ccccc4Oc4ncccc43)s2)cc1 | inactive |
| COc1cc2c(cc1OC)-c1cc3nc4ccccc4nc3n1C(C)(C)C2 | inconclusive [inhibitor, partial curve] |
| NNC(=O)CCN1CCCCC1 | inconclusive [inhibitor, full curve, poor fit] |
| COC(=O)c1c2c(nc3ccccc13)CCC2 | inconclusive [activator, partial curve, poor fit] |

| Compound | Potency |
| --- | --- |
| Cc1ccc(S(=O)(=O)N(C)c2nc3ccccc3[nH]c2=S)cc1 | inconclusive [inhibitor, full curve] |
| CCOC(=O)c1nccnc1C(=O)Nc1ccc(C(F)(F)F)cc1 | inconclusive [inhibitor, single point] |
| COC(=O)c1ccccc1NC(=O)Cn1c(=O)n(-c2ccc(C)cc2)c(=O)c2ccccc21 | inactive |
| CC(OC(=O)C1=COCCO1)C(=O)Nc1cccc(S(=O)(=O)N2CCOCC2)c1 (stereo not drawn) | inconclusive [inhibitor, single point] |
| CCSC1=N/C(=C\c2ccccc2)C(=O)N1c1ccc(OC)cc1 | inconclusive [inhibitor, partial curve, poor fit] |
| CSc1cccc(NC(=S)N2CCCN(Cc3ccccc3F)C2)c1 | inconclusive [inhibitor, single point] |
| Cc1ccccc1OCCSc1nc2ccc(NC(=O)c3ccco3)cc2s1 | inconclusive [inhibitor, partial curve] |
| CCCCNC(=O)C1COc2ccccc2O1 (stereo not drawn) | inactive |
| Oc1ccccc1Cn1c(-c2ccccc2O)nc2ccccc21 | inconclusive [inhibitor, single point] |
| Cc1ccc(NC(=O)CSc2nc3nccnc3c(=O)n2CCc2c[nH]c3ccccc23)cc1C | inconclusive [inhibitor, partial curve] |
| Cc1cc(/C=C2\SC(=S)N(C)C2=O)c(C)n1-c1ccc(O)cc1 | inconclusive [inhibitor, partial curve] |
| Oc1ccc(Br)cc1/C=N/Nc1nc(N2CCCCC2)nc(N2CCOCC2)n1 | inconclusive [inhibitor, single point] |
| O=S(=O)(NCC(c1ccco1)S(=O)(=O)c1cccs1)c1ccc(Cl)cc1 (stereo not drawn) | inconclusive [inhibitor, single point] |
| Cc1ccc(NC(=O)Nc2ccccc2OCc2cc(=O)n3ccccc3n2)c(Cl)c1 | inconclusive [inhibitor, single point] |
| N#Cc1c(N)sc2c1CCN(CCc1ccccc1)C2 | inconclusive [inhibitor, single point] |
| N#CC1=C(S)N=C(N)C(c2nc(-c3ccccc3)cs2)C12CCCC2 (stereo not drawn) | inconclusive [inhibitor, single point] |
| Cc1occc1C(=O)NNC(=S)NCc1ccc(Cl)cc1 | inconclusive [inhibitor, partial curve, poor fit] |
| CCOP(=O)(OCC)C(C#N)=C1SCN(c2ccc(Cl)cc2)CS1 | inconclusive [inhibitor, partial curve, poor fit] |
| Cc1ccc(N=C2NC(=O)CC(C(=O)Nc3cc(C(F)(F)F)ccc3Cl)S2)cc1 (stereo not drawn) | inconclusive [inhibitor, partial curve] |
| COc1ccc2nc(SC)c(C#N)cc2c1 | inactive |
| CCS(=O)(=O)c1ncc(Cl)c(C(=O)Nc2ccccc2)n1 | inconclusive [activator, single point] |
| CC(C)c1ccc(NS(=O)(=O)c2ccc3[nH]cc(C(=O)NCCc4ccccc4)c(=O)c3c2)cc1 | inconclusive [inhibitor, partial curve] |
